{
  "sequences": {"note": "Sequences of proteins named here, by UniProt entry; tags and fusion partners are left off. A change or cut given only in a name is not applied to a line headed by its entry. A line that says so, or that is headed by a name, gives the form on record, which may keep a tag or linker.", "TSC2 c.250G>A p.(A84T) variant (P49815-1, form named)": "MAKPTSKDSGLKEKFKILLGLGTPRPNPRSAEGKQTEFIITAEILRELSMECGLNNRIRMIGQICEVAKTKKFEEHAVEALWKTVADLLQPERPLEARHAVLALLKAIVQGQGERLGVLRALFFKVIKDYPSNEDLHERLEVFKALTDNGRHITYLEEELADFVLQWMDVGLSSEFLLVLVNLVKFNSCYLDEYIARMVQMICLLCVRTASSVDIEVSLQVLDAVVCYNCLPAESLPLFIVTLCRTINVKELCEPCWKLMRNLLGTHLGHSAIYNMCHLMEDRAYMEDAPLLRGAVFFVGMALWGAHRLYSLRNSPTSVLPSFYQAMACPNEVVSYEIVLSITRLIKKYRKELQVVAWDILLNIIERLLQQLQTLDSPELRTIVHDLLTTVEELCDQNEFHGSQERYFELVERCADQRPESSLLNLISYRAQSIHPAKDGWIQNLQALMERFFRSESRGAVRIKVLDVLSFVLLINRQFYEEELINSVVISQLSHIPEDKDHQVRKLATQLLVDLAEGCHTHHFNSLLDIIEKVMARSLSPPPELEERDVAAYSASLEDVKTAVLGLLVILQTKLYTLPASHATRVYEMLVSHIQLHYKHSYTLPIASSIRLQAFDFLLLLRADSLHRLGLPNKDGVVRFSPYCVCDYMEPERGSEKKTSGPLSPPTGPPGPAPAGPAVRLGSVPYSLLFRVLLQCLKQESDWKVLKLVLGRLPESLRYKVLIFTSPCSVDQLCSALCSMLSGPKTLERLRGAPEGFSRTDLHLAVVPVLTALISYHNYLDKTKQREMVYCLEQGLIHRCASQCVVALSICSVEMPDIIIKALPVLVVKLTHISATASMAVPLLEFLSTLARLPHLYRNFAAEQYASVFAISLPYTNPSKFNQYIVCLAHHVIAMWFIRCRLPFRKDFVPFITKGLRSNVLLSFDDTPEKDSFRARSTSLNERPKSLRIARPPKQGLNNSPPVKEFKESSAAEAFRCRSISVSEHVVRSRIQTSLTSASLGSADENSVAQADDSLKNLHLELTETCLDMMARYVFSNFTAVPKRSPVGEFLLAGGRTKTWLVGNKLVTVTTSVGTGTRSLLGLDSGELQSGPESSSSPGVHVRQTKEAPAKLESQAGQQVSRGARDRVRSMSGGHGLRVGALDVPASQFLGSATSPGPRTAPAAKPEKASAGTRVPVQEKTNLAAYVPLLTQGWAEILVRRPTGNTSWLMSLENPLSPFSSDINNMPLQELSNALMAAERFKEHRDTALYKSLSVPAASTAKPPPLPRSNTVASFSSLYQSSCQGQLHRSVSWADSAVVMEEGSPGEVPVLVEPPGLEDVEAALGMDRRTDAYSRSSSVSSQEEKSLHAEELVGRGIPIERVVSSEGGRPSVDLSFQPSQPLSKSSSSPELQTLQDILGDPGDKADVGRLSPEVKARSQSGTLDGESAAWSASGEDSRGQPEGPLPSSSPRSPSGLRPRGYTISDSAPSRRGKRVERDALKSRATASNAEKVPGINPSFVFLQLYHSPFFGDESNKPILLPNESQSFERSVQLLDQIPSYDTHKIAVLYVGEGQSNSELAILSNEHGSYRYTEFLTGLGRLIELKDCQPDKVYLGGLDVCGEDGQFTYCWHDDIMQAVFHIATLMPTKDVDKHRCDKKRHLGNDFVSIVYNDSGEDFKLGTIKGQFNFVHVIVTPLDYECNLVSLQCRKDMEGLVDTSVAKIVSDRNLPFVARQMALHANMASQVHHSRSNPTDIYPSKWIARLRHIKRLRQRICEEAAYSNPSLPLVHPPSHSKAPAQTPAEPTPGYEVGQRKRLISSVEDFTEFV", "TSC2 c.1477C>G p.(L493V) variant (P49815-1, form named)": "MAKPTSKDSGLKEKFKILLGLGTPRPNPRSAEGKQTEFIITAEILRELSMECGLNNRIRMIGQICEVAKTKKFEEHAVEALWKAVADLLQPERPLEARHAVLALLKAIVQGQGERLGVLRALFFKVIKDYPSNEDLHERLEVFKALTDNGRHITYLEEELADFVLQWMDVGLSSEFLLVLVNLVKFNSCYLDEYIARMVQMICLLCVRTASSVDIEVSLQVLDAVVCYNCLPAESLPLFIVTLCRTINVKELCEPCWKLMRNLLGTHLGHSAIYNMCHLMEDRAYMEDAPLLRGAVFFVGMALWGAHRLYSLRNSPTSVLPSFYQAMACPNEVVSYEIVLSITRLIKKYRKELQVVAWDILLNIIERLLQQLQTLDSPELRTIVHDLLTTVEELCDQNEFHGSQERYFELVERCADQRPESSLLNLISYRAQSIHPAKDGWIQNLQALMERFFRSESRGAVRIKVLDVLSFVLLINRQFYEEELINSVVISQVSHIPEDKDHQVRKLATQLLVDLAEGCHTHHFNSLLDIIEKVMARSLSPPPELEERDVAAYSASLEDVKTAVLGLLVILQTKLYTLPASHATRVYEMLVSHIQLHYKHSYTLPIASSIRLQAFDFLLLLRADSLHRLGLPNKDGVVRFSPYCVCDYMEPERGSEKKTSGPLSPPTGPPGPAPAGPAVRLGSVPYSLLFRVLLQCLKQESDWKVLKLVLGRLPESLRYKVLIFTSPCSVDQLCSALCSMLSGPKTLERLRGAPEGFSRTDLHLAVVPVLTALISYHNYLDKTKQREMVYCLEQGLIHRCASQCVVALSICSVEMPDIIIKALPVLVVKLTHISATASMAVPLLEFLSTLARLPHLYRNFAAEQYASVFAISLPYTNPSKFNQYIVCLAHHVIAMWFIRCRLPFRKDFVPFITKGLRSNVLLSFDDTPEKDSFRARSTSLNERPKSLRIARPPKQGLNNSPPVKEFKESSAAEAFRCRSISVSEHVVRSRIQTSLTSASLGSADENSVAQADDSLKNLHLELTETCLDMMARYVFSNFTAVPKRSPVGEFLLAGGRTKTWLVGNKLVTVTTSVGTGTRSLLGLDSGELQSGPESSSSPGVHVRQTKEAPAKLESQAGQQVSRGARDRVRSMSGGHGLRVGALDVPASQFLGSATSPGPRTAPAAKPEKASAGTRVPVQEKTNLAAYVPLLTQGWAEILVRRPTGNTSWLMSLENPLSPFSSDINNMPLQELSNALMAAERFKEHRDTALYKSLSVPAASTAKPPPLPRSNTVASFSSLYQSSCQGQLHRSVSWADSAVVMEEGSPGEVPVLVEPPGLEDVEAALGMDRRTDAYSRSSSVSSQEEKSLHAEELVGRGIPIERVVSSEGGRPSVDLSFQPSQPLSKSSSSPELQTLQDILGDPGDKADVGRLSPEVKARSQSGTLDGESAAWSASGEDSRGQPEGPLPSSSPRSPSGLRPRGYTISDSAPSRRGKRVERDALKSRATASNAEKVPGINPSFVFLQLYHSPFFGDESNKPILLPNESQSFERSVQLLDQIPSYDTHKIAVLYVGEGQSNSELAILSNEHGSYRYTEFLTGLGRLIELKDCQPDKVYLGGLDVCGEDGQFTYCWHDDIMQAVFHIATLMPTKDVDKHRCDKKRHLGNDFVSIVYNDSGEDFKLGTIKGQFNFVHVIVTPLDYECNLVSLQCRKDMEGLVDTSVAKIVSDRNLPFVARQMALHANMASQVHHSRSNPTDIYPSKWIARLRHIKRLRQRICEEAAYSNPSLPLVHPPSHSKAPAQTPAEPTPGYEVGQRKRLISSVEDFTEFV", "TSC2 c.2747T>C p.(L916P) variant (P49815-1, form named)": "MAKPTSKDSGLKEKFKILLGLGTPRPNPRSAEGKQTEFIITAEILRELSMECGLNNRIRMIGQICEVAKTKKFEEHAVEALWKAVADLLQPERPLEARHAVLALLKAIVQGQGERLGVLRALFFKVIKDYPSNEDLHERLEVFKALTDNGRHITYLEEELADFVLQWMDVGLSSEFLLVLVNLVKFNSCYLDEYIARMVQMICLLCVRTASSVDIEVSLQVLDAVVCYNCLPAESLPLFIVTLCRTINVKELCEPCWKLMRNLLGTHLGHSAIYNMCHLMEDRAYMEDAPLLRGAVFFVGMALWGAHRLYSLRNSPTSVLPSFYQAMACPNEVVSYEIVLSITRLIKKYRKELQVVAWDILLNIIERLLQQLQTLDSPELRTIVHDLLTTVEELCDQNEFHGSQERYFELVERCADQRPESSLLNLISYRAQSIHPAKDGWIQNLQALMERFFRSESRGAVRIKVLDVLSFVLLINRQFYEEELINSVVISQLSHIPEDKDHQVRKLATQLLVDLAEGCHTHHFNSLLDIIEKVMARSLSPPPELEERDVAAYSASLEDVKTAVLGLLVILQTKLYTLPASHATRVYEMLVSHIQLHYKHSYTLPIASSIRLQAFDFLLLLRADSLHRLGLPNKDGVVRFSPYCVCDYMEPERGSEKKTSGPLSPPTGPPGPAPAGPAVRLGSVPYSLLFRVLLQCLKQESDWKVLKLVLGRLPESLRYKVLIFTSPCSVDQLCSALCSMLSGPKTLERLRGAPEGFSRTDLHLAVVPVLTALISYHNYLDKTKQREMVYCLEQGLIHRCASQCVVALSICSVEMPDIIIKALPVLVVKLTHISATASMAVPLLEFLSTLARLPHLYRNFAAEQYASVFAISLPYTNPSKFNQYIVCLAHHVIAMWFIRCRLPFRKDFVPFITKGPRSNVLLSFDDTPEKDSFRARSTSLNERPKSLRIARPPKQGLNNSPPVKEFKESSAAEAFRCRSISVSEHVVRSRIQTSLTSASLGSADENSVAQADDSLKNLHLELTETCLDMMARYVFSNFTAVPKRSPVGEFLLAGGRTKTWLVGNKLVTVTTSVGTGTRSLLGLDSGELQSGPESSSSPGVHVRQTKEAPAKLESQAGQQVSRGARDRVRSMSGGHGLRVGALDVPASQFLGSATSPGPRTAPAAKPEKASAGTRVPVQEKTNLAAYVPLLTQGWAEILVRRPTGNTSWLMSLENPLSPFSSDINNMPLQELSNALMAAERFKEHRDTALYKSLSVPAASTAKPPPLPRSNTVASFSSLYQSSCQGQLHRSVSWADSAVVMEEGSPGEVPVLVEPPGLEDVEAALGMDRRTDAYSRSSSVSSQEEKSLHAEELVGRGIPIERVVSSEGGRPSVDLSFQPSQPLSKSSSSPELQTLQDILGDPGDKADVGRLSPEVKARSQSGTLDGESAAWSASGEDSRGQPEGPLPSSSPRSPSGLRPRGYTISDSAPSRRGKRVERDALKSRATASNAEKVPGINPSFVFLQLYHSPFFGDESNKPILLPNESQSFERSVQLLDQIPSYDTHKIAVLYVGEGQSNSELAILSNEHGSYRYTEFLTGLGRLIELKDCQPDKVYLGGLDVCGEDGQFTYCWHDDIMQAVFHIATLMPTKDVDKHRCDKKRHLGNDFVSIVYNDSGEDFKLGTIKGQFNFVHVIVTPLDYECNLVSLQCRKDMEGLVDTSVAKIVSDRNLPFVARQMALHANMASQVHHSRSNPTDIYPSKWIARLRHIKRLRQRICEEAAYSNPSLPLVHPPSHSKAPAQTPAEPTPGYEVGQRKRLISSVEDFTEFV"},
  "source": "paper PMC7154745",
  "note": "These are yes or no findings as the source states them, for the method shown. Binding seen in cells or lysates may run through a third protein. Some results given as binding are weak or reduced against the parent protein; the word gives no strength. Tags and fused reporters may be left off the sequences shown.",
  "data": [
    {"biological_target": "T1, TSC1, wild-type, C-terminal myc-epitope tag (human) (UniProt Q92574)", "T1 sequence": "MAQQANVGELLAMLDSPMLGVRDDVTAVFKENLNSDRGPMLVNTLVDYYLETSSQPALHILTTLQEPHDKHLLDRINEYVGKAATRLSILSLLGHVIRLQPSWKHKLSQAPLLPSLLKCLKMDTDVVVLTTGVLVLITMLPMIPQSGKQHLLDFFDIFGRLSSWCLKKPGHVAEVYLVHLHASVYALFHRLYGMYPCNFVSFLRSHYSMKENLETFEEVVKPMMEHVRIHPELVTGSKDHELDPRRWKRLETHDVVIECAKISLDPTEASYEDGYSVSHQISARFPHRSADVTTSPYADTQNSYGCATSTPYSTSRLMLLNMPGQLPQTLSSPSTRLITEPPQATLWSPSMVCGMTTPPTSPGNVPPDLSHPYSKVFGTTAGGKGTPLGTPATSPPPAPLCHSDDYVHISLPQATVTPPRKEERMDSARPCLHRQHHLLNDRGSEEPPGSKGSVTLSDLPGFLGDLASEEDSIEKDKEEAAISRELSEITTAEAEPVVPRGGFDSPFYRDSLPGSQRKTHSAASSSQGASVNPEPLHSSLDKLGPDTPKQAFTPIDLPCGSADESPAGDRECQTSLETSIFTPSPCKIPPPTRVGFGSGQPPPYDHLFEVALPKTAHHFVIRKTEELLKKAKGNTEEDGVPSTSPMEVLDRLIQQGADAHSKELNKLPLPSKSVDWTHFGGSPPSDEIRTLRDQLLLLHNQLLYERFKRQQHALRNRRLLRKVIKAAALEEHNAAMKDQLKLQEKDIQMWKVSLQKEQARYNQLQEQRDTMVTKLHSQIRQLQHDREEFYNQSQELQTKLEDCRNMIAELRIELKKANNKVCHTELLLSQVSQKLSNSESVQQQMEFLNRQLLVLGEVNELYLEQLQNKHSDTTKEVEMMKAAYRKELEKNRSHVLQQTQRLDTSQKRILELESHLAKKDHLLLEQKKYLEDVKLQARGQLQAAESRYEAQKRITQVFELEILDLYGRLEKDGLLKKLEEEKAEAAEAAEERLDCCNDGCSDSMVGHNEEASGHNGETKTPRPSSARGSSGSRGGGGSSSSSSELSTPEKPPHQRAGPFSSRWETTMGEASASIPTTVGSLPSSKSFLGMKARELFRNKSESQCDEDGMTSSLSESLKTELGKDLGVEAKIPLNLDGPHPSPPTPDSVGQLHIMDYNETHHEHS", "test": "co-IP; TSC1:TSC2 DKO HEK 293T cells cotransfected with C-terminal myc-tagged TSC1 and TSC2 or a TSC2 variant; cleared lysates (50 mM Tris-HCl pH 7.6, 100 mM NaCl, 50 mM NaF, 1% Triton X-100) divided between anti-myc affinity beads (TSC1 IP) and anti-TSC2 antiserum with Protein A-agarose (TSC2 IP); 3-4 hr at 4°C; immunoblot", "values": [
      {"substance": "TSC2 c.250G>A p.(A84T) variant (from UniProt P49815-1 1-1807)", "binding": "binds"},
      {"substance": "TSC2 c.1477C>G p.(L493V) variant (from UniProt P49815-1 1-1807)", "binding": "binds"},
      {"substance": "TSC2 c.2747T>C p.(L916P) variant (from UniProt P49815-1 1-1807)", "binding": "binds"},
      {"substance": "TSC2 c.3134C>T (p.S1045F) variant (from UniProt P49815-1 1-1807)", "binding": "binds"},
      {"substance": "TSC2 c.3589A>T (p.I1197F) variant (from UniProt P49815-1 1-1807)", "binding": "binds"},
      {"substance": "TSC2 c.4225C>G p.(R1409G) variant (from UniProt P49815-1 1-1807)", "binding": "binds"},
      {"substance": "TSC2 c.4709_4714del p.(1570_1571del) variant (from UniProt P49815-1 1-1807)", "binding": "binds"},
      {"substance": "TSC2 c.4966G>A p.(D1656N) variant (from UniProt P49815-1 1-1807)", "binding": "binds"},
      {"substance": "TSC2 c.4966G>T p.(D1656Y) variant (from UniProt P49815-1 1-1807)", "binding": "binds"},
      {"substance": "TSC2 r.1444_1477delinsG p.482_493delinsV variant (from UniProt P49815-1 1-1807)", "binding": "no binding"},
      {"substance": "TSC2, wild-type (from UniProt P49815-1 1-1807)", "binding": "binds"}
    ]}
  ]
}
